Among all 310,000 compounds or so, about 14,000 (4.5%) showed an effect of 50% or more. Effects have a minus sign here. Some of the results follow.
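Note: peak tail current of the secondary pulse compared with the same well before compound.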

Chain of human ether-à-go-go-related gene (hERG) potassium channel (Q12809 whole entry, looked up): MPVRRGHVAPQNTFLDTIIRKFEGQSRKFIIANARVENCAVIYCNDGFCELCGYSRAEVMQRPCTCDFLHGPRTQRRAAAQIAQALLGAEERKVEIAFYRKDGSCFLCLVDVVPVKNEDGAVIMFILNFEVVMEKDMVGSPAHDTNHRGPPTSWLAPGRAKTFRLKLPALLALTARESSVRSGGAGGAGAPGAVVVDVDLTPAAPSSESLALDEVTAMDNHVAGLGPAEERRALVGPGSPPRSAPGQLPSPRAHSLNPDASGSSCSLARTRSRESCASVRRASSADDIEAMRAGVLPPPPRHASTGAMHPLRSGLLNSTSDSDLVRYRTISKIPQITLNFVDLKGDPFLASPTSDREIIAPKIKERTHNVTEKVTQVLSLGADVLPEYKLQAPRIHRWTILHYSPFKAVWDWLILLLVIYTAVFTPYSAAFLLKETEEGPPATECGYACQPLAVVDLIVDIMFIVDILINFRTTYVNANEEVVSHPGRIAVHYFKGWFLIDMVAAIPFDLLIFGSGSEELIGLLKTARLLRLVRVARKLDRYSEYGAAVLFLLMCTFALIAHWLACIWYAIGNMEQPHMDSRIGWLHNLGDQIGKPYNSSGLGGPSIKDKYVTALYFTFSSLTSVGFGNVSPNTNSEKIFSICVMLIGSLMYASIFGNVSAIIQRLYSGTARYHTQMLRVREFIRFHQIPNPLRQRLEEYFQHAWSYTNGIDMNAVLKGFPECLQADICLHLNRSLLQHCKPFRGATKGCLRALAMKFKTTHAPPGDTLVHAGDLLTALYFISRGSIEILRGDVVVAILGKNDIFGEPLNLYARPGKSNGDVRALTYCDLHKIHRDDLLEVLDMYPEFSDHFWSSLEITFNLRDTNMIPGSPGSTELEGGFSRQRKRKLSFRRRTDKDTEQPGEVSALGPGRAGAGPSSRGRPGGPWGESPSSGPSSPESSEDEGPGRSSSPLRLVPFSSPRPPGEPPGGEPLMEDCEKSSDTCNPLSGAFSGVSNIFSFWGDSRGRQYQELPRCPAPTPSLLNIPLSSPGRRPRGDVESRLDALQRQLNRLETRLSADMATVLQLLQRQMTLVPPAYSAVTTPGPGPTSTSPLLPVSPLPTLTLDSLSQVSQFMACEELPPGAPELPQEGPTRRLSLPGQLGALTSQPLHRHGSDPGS

The experiment has as its target human ether-à-go-go-related gene (hERG) potassium channel (human, UniProt Q12809). In words: primary screen, population patch clamp on CHO cells stably expressing hERG.
Turning to `CCOCCCNC(=O)C(c1ccc(C)cc1)N(Cc1cccs1)C(=O)c1ccccc1O` (stereo not shown), the “hERG current change (%, negative = inhibition) at 10uM” value is -22.2%. The figure for `Cn1c(SCC2CCCO2)nnc1-c1ccc([N+](=O)[O-])cc1` (stereo not shown) is -63.8%. The figure for `CCCOc1ccc(C(=O)CCNC(Cc2c[nH]c3ccccc23)C(=O)O)cc1` (stereo not shown) is 14.1%; for `CC(=O)Nc1ccc(S(=O)(=O)NCC(=O)N2CCN(S(=O)(=O)c3cccs3)CC2)cc1` it is 15%; for `COc1nc(/C=C/N(C)C)c([N+](=O)[O-])c(OC)n1` it is 3.52%. The figure for `COc1ccc(C(=O)Nc2ccccn2)cc1` is 5.19%; for `O=C(c1cc(F)ccc1F)C1CCCN(Cc2cccn2-c2ccccn2)C1` (stereo not shown) it is -77.9%; for `O=C(NCc1ccccn1)C1CCN(C(=O)c2cc3sccc3n2Cc2ccc(F)cc2)CC1` it is -46.5%. With `COc1ccc(Cl)cc1C(=O)Nn1cnnc1`, the “hERG current change (%, negative = inhibition) at 10uM” value is 21.4%. Consider `Cc1ccccc1CSc1nnc(Cn2c(=O)sc3ccccc32)n1C`, for which the “hERG current change (%, negative = inhibition) at 10uM” value was -6.32%. The figure for `COc1nc(N)nc(N2CCOCC2)n1` is 5.42%; for `Cc1ccc(NC(=O)c2cc3cc(OC(F)(F)F)ccc3[nH]2)cc1` it is 10.7%. The figure for `Cc1ccc(C(=O)NC(O)C(Cl)Cl)cc1` (stereo not shown) is 15.4%; for `COc1ccccc1CCN1CCCC(CN(C)Cc2ccc(OCCO)cc2)C1` (stereo not shown) it is -40.8%; for `CC(=O)Nc1ccc(S(=O)(=O)N2CCN(CC(=O)N3CCOCC3)CC2)cc1` it is 13.1%. The figure for `COc1ccccc1NC(=O)CCN1C(=O)C2C3CCC(C3)C2C1=O` (stereo not shown) is 7.66%; for `CCCCCn1c(=O)[nH]c2cc(C(=O)NCCCN(C)Cc3ccccc3)ccc2c1=O` it is 4.62%. On to `CCOc1ccc2sc(NS(=O)(=O)c3ccc(N)cc3)nc2c1`, for which the “hERG current change (%, negative = inhibition) at 10uM” value is given as 12%. Take `Cc1ccccc1C(=O)O`: the “hERG current change (%, negative = inhibition) at 10uM” value was 2.95%. For `CN1CCc2c(sc(N)c2C(N)=O)C1`, the “hERG current change (%, negative = inhibition) at 10uM” value amounted to 6.59%.

As for `N#Cc1ccc(S(=O)(=O)NCC(=O)OCC(=O)NCCc2ccccc2)cc1`, the “hERG current change (%, negative = inhibition) at 10uM” value stood at 10.7%. The figure for `Cc1cc(OCc2cccc(Cl)c2)c(C)cc1CN1CCOCC1` is 0.275%; for `O=C(NNC(=O)c1ccc(-c2ccccc2)cc1)Nc1ccccc1F` it is 9.1%; for `O=C(Nc1nc2ccccc2c(=O)[nH]1)c1ccccc1SCc1ccccc1` it is 26.7%. For `COc1ccc2c(C)cc(N3CCCCCC3)nc2c1.O=C(O)C(=O)O`, the “hERG current change (%, negative = inhibition) at 10uM” value is -82%. Take `Cc1ccccc1OCC(=O)NNC(=O)Cc1ccc(S(=O)(=O)N2CCOCC2)s1`: the “hERG current change (%, negative = inhibition) at 10uM” value worked out at 0.216%. The figure for `COc1cccc(C2CCCCN2Cc2nc(-c3ccc(C)o3)oc2C)c1` (stereo not shown) is -12.5%; for `O=C(CCN1C(=O)C2C3C=CC(C3)C2C1=O)N1CCCCC1` (stereo not shown) it is -4.12%.

As for `CN1CC(=O)N(CC(=O)N2N=C(c3ccc(Cl)cc3)CC2c2ccco2)C1=O` (stereo not shown), the “hERG current change (%, negative = inhibition) at 10uM” value is -11.6%. The figure for `Cc1nc2ccc(NC(=O)CCS(=O)(=O)c3ccc(Cl)cc3)cc2s1` is -5.74%. The same measure for `COc1cc(C(=O)Nc2cc3c4c(c2)CC(=O)N4CCC3)cc(OC)c1OC`: 3.93%; for `COc1ccc(C2NC(=O)c3ccccc3O2)cc1` (stereo not shown): -4.49%. The figure for `CC(=O)c1cccc(NC(=O)N2CCCC2C(=O)Nc2ccc3c(c2)OCO3)c1` (stereo not shown) is 15.9%. As for `CCN(CC(=O)Nc1ccc(NC(C)=O)cc1)C(=O)c1cc(CN2C(=O)c3ccccc3C2=O)ccc1OC`, the “hERG current change (%, negative = inhibition) at 10uM” value is 11.1%.

With `COc1ccc(CC(=O)Nc2cccc(-c3ccc4nnc(C)n4n3)c2)cc1OC`, the “hERG current change (%, negative = inhibition) at 10uM” value is -0.118%. With `CN1C(=O)N(C)C2C1N(C)S(=O)(=O)N2C` (stereo not shown), the “hERG current change (%, negative = inhibition) at 10uM” value is given as 18.5%.

Turning to `NC(=O)/C(=C\c1ccccc1)NC(=O)c1ccc(NC(=O)c2ccccc2)cc1`, the “hERG current change (%, negative = inhibition) at 10uM” value came out at 10.9%. For the molecule `O=C(c1ccccc1)c1cn[nH]c1-c1ccccc1O`, the “hERG current change (%, negative = inhibition) at 10uM” value is recorded as 5.65%. In the case of `Cc1cc(C)n2nc(NCc3cccc(Br)c3)nc2n1`, the “hERG current change (%, negative = inhibition) at 10uM” value is given as -70%. The figure for `COc1ccc(S(=O)(=O)N2CCN(Cc3cccc([N+](=O)[O-])c3)CC2)cc1` is -87.4%; for `COCCCNC(=O)CCn1c(=O)c2ccccc2n(CC(=O)Nc2cc(Cl)ccc2C)c1=O` it is -17.6%. The same measure for `O=C(c1cccc(Br)c1)c1conc1C(=O)c1ccco1`: 2.57%. The figure for `COc1ccccc1C(=O)N/N=C1/NC(=O)CC(C(=O)Nc2ccccc2)S1` (stereo not shown) is 9.35%. Regarding `Cc1cccc(Oc2ccc(N)cc2)c1`, the “hERG current change (%, negative = inhibition) at 10uM” value was -12%. On to `CNC(=S)Nc1ccc([N+](=O)[O-])cc1C`, for which the “hERG current change (%, negative = inhibition) at 10uM” value amounted to 25.3%. The same measure for `CCN(CC(=O)Nc1c(F)cccc1F)C(=O)c1ccccn1`: 1.1%. `COc1ccc(N2CCN(C3CCCCC3NS(=O)(=O)c3ccc(Cl)cc3)CC2)cc1` (stereo not shown): the “hERG current change (%, negative = inhibition) at 10uM” value was 5.87%.

For `C/C(=N\NC(=O)CCC(=O)N/N=C(\C)c1ccc(C)o1)c1ccc(C)o1`, the “hERG current change (%, negative = inhibition) at 10uM” value is -11%. Take `Cc1ccc(C)c(CN2C(=O)COc3ccc(C(=O)c4ccccc4C(=O)O)cc32)c1`: the “hERG current change (%, negative = inhibition) at 10uM” value is on record as 5.35%.

For the molecule `O=C(Nc1ccccc1-c1nnn(CC(=O)N2CCc3ccccc3C2)n1)C1CCC1`, the “hERG current change (%, negative = inhibition) at 10uM” value was -52.8%. For `Cc1ccc(C)c(N2CCN(S(=O)(=O)c3ccc(-c4ccc(=O)[nH]n4)o3)CC2)c1`, the “hERG current change (%, negative = inhibition) at 10uM” value was 12.8%. The figure for `O=C(Nc1ccc([N+](=O)[O-])cc1)OCCc1ccccn1` is 8.01%. As to `O=C(CN1C(=O)c2cccc3cccc1c23)NC1CCCCC1`, the “hERG current change (%, negative = inhibition) at 10uM” value is 6.41%. The same measure for `COC(=O)c1cccc(COC(=O)c2cc3ccccc3oc2=O)c1`: -16.1%; for `CCOC(=O)c1ccc(S(=O)(=O)Nc2cc(C(C)(C)C)no2)cc1`: 5.32%.

For the molecule `O=C(Cn1nc(-c2ccccc2Cl)ccc1=O)Nc1ccc(Br)cc1`, the “hERG current change (%, negative = inhibition) at 10uM” value is -3.77%. The figure for `O=C(Cn1cc(C(F)(F)F)ccc1=O)N/N=C/c1cccc(Cl)c1` is 10.5%; for `O=C(CSc1nnc(-c2cnccn2)n1Cc1ccco1)c1ccc2ccccc2c1` it is -15.4%; for `O=C(CSc1ccc2nnc(-c3ccccn3)n2n1)Nc1ccccc1F` it is -14.7%. The figure for `COc1ccccc1CNC(=O)[C@@H]1CCCN1S(=O)(=O)c1ccccc1F` is 23.3%; for `O=C(NC1(C(F)(F)F)NC(=O)N(c2ccc(F)c(Cl)c2)C1=O)c1ccncc1` (stereo not shown) it is -1.23%; for `CC(=O)Nc1c(-c2ccc(F)cc2)nc2ccccn12` it is -11.6%. The same measure for `OCC[C@H]1C[C@@H](O)[C@H](O)[C@]2(Cc3ccccc3O2)O1`: -2.1%.

`Cc1ccc(S(=O)(=O)CC(=O)Nc2nc(-c3ccccc3)cs2)cc1`: the “hERG current change (%, negative = inhibition) at 10uM” value is -38%.

As for `CCOC(=O)c1c(NC(=O)CSc2ncccn2)sc2c1CC(C)(C)NC2(C)C`, the “hERG current change (%, negative = inhibition) at 10uM” value is reported as -55.9%. The same measure for `CC(C)Sc1nnc(NC(=O)c2ccc3c(c2)OCO3)s1`: -25.9%; for `CCC(C)NC(=O)c1cccc(C)c1` (stereo not shown): -6.81%; for `COC(=O)C/C=C/[C@@H](C)[C@@H](/C=N/OCC[C@@H]1C=C[C@H](OC(C)=O)[C@@H](COC(C)=O)O1)NS(=O)(=O)c1ccc(C)cc1`: -7.77%.

With `CCn1ncc(Cl)c1C(=O)NC(C)c1ccccc1` (stereo not shown), the “hERG current change (%, negative = inhibition) at 10uM” value is listed as -8.21%.

Turning to `Cl.Nc1nc2ccccc2n1C(=O)c1cccs1`, the “hERG current change (%, negative = inhibition) at 10uM” value turned out to be 16.4%. The figure for `CC(=O)NC(=S)Nc1ccc2oc(=O)ccc2c1` is 16.4%.

In the case of `O=C(OC1CCOC1=O)c1cc(-c2ccccc2)nc2ccccc12` (stereo not shown), the “hERG current change (%, negative = inhibition) at 10uM” value is reported as -2.69%. As to `O=C(CN1C(=O)NC2(CCCC2)C1=O)OCc1ccccc1F`, the “hERG current change (%, negative = inhibition) at 10uM” value is 6.83%. The figure for `Cc1cccc2sc(NNC(=O)c3ccc(S(=O)(=O)N4CCCC(C)C4)cc3)nc12` (stereo not shown) is 2.91%; for `CN1CCN(C(=O)C2CCCCC2C(=O)O)CC1` (stereo not shown) it is 0.612%; for `CSCCC(NC(=O)COc1ccccc1)C(=O)N1CCCCCC1` (stereo not shown) it is -20.7%. The figure for `COc1cccc(N2C(=NC(=O)C3CCCCC3)SC3CS(=O)(=O)CC32)c1` (stereo not shown) is -0.837%; for `Cc1ccc(OCC(=O)N(Cc2cccs2)C2CCS(=O)(=O)C2)cc1` (stereo not shown) it is -8.3%; for `CN(C(=O)COC(=O)c1c2c(nc3ccccc13)CCCC2)c1c(N)n(Cc2ccccc2)c(=O)[nH]c1=O` it is -0.276%. The figure for `COc1ccccc1/C=C(\NC(=O)c1ccc(OC)c(OC)c1)C(=O)Nc1ccc([N+](=O)[O-])cc1` is 14.3%; for `CCN(CC)c1ccc(/C=C2\C(=O)c3ccc(C(=O)O)cc3C2=O)cc1` it is 3.4%.

Turning to `C/C(=N\Nc1ccc([N+](=O)[O-])cc1)c1ccc(N)cc1`, the “hERG current change (%, negative = inhibition) at 10uM” value is -15.2%. The same measure for `COc1cccc(-n2c(SCC(=O)c3c[nH]c4ccccc34)nc3ccccc3c2=O)c1`: 7.77%; for `Cc1ccc(NC(=O)c2c(C)noc2C)cc1`: -10.9%; for `Cc1c(N/C(=N/S(=O)(=O)c2ccc(Cl)cc2)c2ccccc2)c(=O)n(-c2ccccc2)n1C`: -20.6%. The same measure for `O=C(COC(=O)C1(c2ccccc2F)CCCC1)N1CCc2ccccc21`: 3.52%; for `CCc1ccc(N2C(=O)CN(Cc3sccc3C)C2=S)cc1`: -0.759%. For `COc1ccc(NC(=O)CSc2[nH]c(=O)cc(C)c2C#N)cc1OC`, the “hERG current change (%, negative = inhibition) at 10uM” value was 8.53%.

The record behind these values is PMC4336329 (PLoS ONE, 2015).
